The supplement of paper PMC11417369
± gives the standard deviation of the averaged measurements. This is one part of the list.

Tested on: PfAP2-LT AP2 domain (GST-tagged)
Experiment: gcPBM binding intensity (ln(normalized median fluorescence intensity)); higher = stronger DNA binding
How it was run: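 Using an Agilent 4 × 180k array, primer-extended double-stranded 36-bp intergenic genomic probes and negative controls were exposed for 1 h to GST-fused P. falciparum DNA-binding domains expressed in E. coli. Binding was carried out in 1× PBS with 1% milk, 0.2 mg/ml BSA, 0.5% salmon testes DNA and 0.03% Triton X-100, and protein was detected with Alexa488 anti-GST antibody and a 488 nm scan. Binding intensity is the highest Masliner-normalised natural-log median intensity across replicate spots of either probe orientation.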

Sequence	gcPBM binding intensity (ln)
TATATATTTCAATAATGTACATATAATATATATATT [XGTACX_site4124]	8.7 ± 0.38
AATGTGTAGACACGCACACACAAAAAAATATTTATA [CACACA_site7384]	9.59 ± 0.36
AAAAAAAAAAAAAGTGCACACTTTTAATATAAATAT [CACACA_site3314]	8.82 ± 0.41
TTTTATATATATTATACACACAAGGAAAAAAAAAAA [CACACA_site3677]	8.7 ± 0.45
TTTTTTTTTTTCCTTACACACATATTTCATTTTATA [CACACA_site747]	9.04 ± 0.49
TTTTTATTTTTTAGTAGTACACACTTTTTGAACCTT [XGTACX_site1091]	8.81 ± 0.64
TATAAAAGGAAACACACACACATATATATATATATA [CACACA_site939]	10.2 ± 0.32
TGGATATATGTAAAAATTGCAAGAAAGATAAAAGGA [CACACA_negctrl_site64]	8.88 ± 0.6
ATTATGATATATATATGTACATATATATAATATAAT [XGTACX_site259]	8.78 ± 0.28
TCTATGAATTAATATGCATGTAACGTATTTATACTT [TGCATGCA_site669]	8.84 ± 0.36
TAGTATAATATGAACACACACACACCCACAAAAAAA [CACACA_site2009]	10 ± 0.29
CAAAAAATATATTTTTGTACTTATGTTTTTATTTTG [XGTACX_site5230]	8.69 ± 0.43
TTATAATATAAAAAATGTACATTAAAAAAAAAGATT [XGTACX_site8950]	8.76 ± 0.46
AAGTATCAAAAATAAAGTACATATTTTGTAGGCAGG [XGTACX_site1463]	8.94 ± 0.46
TATTTCACACAGTATATATATATATATATATATATA [TGCATGCA_negctrl_site118]	9.72 ± 0.3
AAAAGATAAAATTATGCACACATACGAATAATTTTA [CACACA_site8497]	8.92 ± 0.48
AAGGGAAAAAAAAAAGCACACATACGTAAATATATA [CACACA_site7960]	8.94 ± 0.5
TGTTGGTATGTGAATGCATGCATATAAGTCTATCTG [TGCATGCA_site780]	8.98 ± 0.34
GTTAATTTTTGTATAGTGCAAAAATATAATAGTATG	8.64 ± 0.48
TTGAAGTATAATAAAGTGCAAAATTATAATGATCTT [GTGCAC_site9639]	8.92 ± 0.49
ATCTGACAAAAGTGTACACATATATATATATATATA [CACACA_site4814]	9.96 ± 0.028
AAATGGGAAATTTCATGTACTCATTTACCCTTATTA [XGTACX_site4740]	8.56 ± 0.46
CACATAATGAAAAATACACACATGTATATTTATAAA [CACACA_site2736]	8.99 ± 0.36

Sequence	gcPBM binding intensity (ln)
AGATATATATATAGGTGTACTGGAATGAAATTGTTT [XGTACX_site8200]	8.88 ± 0.57
ATGATAATTATTAAGGGTACATAAAAATATATCTAT [XGTACX_site8969]	8.67 ± 0.47
TATAATTATTTTTTCACACATATGTATTTATATATA [CACACA_site4205]	8.87 ± 0.44
ATTATTTAACATGTGGACACAAAAATTTAAGGGTTC [CACACA_negctrl_site1269]	8.73 ± 0.4
TACTAAGAAAAGAACTGTACATAGAATATACCCAAG [XGTACX_site4757]	8.73 ± 0.44
AATATCAAAAAAAAAAAAAAAAAAAAAAAAAAAAAA [CACACA_negctrl_site288]	8.16 ± 0.4
AATATATTAAATATTACACACATACATTTAGTGGAA [CACACA_site8609]	8.78 ± 0.4
TAGTATTATTTTTTTTGTACATATAAATGTAAAATA [XGTACX_site5282]	8.29 ± 0.49
TTTTTTTAAAATATGAGTACATAATATTGTAAAAAT [XGTACX_site6536]	8.28 ± 0.35
AAAACATAAATACATACACACATAATATATATTAAG [CACACA_site4239]	9.23 ± 0.45
TATATAAATATATAATGTACGTTTTAAAAATAATAT [XGTACX_site3881]	8.6 ± 0.43
TTAATATGAAAACTCTGTACCCAACCTTCTTATGGA [XGTACX_site2126]	8.62 ± 0.28
TTAATATATAATAAATTTTTTTTTTTTTTTTTTTTT [CACACA_negctrl_site892]	8.355 ± 0.05
ATATATTAATATGTGTGTACTTAACCATTCATATGT [XGTACX_site7395]	9.1 ± 0.4
ATATAATAAATGTAGGTGCATAAAAATATTTTGTTA [GTGCAC_site9780]	8.95 ± 0.46
TTTTAATAATATGGATGTACATAAAAATAAATAAAT [XGTACX_site7937]	8.76 ± 0.46
TTAACCACTAAAAGTACACACATATATACCTATATA [CACACA_site6026]	8.98 ± 0.38
TACTAAATGATCATATGTACACATGTTTACTTTTTA [XGTACX_site1253]	8.95 ± 0.35
AATATATATATATATATATATATTTCAATATATAAA [XGTACX_negctrl_site187]	8.93 ± 0.23
ATACATATACACATTTGTACATATTCCTTTTTATCG [XGTACX_site1731]	8.98 ± 0.46
TCTTGTTTTAATTTTTATATTATTATTTAGATATAT [CACACA_negctrl_site921]	8.71 ± 0.44
TTATTTAAAATGAAAAGTACATATTACTTTCTCACA [XGTACX_site5043]	8.4 ± 0.54
AAAATAAGAAAACAAATGCACACCATTTATATAGAT [CACACA_site1055]	9.03 ± 0.39

Sequence	gcPBM binding intensity (ln)
TATATAATAAGAAAATATGTGCGTAGTTCAGCAAAA [XGTACX_negctrl_site304]	8.85 ± 0.52
GAAAAATATATTCTGGTGCATGAATAAAATCATAAA	8.53 ± 0.49
AATTGGATAAACCAATTGGATTATAATACGATATAT [CACACA_negctrl_site275]	8.79 ± 0.49
ATATATATATATATATGTACATAATTAATAGCATAT [XGTACX_site1428]	9.305 ± 0.035
GAAAAAGATGCGCATACACACAGATGAATAACAAAA [CACACA_site1628]	9.37 ± 0.43
ATCATATTTATGTTGGTGCATTATACATAAAGTTTA [GTGCAC_site9574]	8.68 ± 0.37
TGTCTTATTTATATTACACACTATATGAAAAAATAT [CACACA_site6807]	8.6 ± 0.38
TATTCATCACTTTTTTGTACTTATGGATAAAATTTT [XGTACX_site3349]	8.71 ± 0.5
ATAATTGTTTCTTTCTCCTTTTTATTTCATTTTAAA [CACACA_negctrl_site964]	8.68 ± 0.41
CACAAAAAAAATTATACACACACACCCATATATATA [CACACA_site8255]	9.82 ± 0.11
AAAGGATATATCCAGAGTACATATTCTGTGTAATAC [XGTACX_site1547]	8.95 ± 0.53
TTTCAAAAATGAGTTACACACACACCGATATATATA [CACACA_site5263]	9.45 ± 0.38
AATAAATACTAAATGGTGCAAAATTTTTTAACACTG	8.72 ± 0.35
TATATATATTATAGATGTACTTTCATATATATGTTT [XGTACX_site8189]	8.83 ± 0.49
AGCCACCATATTTACACACACATCAAAATGTATTAA [CACACA_site1816]	9.48 ± 0.38
TAAATATAATCTAAATGTACATGACATAATTTTTTT [XGTACX_site2856]	8.49 ± 0.51
GTGTAATATGAAATGTGTACACACGCACACACAAAA [XGTACX_site6180]	9.82 ± 0.28
TAAAATATTTTTTGTAGTACCTTAATATTTTTGAAG [XGTACX_site3048]	8.38 ± 0.4
TATTTATTTATGTACGCACACAGTTGATATTAATTC [CACACA_site2754]	9.12 ± 0.39
ATGTATATTTTTAAAAGTACAGAATTTTCATATGAA [XGTACX_site5754]	8.45 ± 0.51
ATAGTATCTGGTAGCTGTACGAGTCGTAGAGTCTAA [XGTACX_site2539]	8.82 ± 0.33
ATATACAATACAAAAACACACACAAAAAAAGAAAAG [CACACA_site8668]	9.59 ± 0.4
AACATTTTAAATTATACACACATTTTGAATATATAT [CACACA_site3470]	8.91 ± 0.39

Sequence	gcPBM binding intensity (ln)
TATACACCCAGACACACACACACACCCAAAAAAAAA [CACACA_site497]	10.2 ± 0.3
TGTTGTTGTAATTATTGTACGTTATGCGATTATTAT [XGTACX_site7005]	9.09 ± 0.34
TAATGTTACACAAACTTTTCATTCTTTTTAATAAAT [TGCATGCA_negctrl_site331]	8.27 ± 0.49
ATATAATTATAAAATAAACACACATATATATTTATA [CACACA_site8039]	8.76 ± 0.42
TTATTTATTTATAATTGTACATTGCAAATGAATTTA [XGTACX_site4083]	8.38 ± 0.42
ATATATATATATATATGTACATAGAGAAGTATCTTT [XGTACX_site4737]	9.48 ± 0.042
ATTTTATAAAGGAAGTGTACTAATAAATTCAAATTA [XGTACX_site3922]	8.38 ± 0.59
AAAAAAAAAAAAAAATGTACAAATATATACATATAT [XGTACX_site935]	8.63 ± 0.4
AAGAAAAAATATACTTCACACATTTAATATATAATT [CACACA_site4919]	8.55 ± 0.52
TCGATGTTGGTAGGATGTACGGTACCGGTAGTATTT [XGTACX_site4214]	8.93 ± 0.38
AAAAAAGAATTGTGCACACACAAAAAATGTTCATAA [CACACA_site1103]	9.19 ± 0.49
GATATATTTTATATATGTACATACAAGGGTAAATAT [XGTACX_site1202]	8.9 ± 0.42
AAAATAAACTATAGTACACACTTATTATTATGAAAT [CACACA_site5488]	8.9 ± 0.48
TCAATTAGACGAAAATGTACATATGTATATATTTTT [XGTACX_site5027]	8.75 ± 0.44
AAAATATGTAGCTACACACACATAAACAAAATAACA [CACACA_site1007]	9.41 ± 0.3
GAAAACAAAATGGTAACACACAAATGTAAATAGTAT [CACACA_site2113]	9.36 ± 0.42
AAAATAAATAAATACACACACACGAATATTTATATA [CACACA_site6892]	9.67 ± 0.13
AAAAAAAAAAAAAAAAGTACACATCATTTTATGAAA [XGTACX_site1402]	8.45 ± 0.56
ATTATAAAAATATCGTGTACATATTTTTTAAAATAA [XGTACX_site5072]	8.43 ± 0.42
ATTATTTCAATTTTTTTTGTTTTTAAAAAAAAAAAT [CACACA_negctrl_site1387]	8.01 ± 0.39
